Here are results for 29 compounds from PubChem BioAssay AID1745853 (National Center for Advancing Translational Sciences (NCATS), 2022).

Experiment in all cases: Primary Screen for Target Class Profiling of Small Molecule Inhibitors of Methyltransferases
Experiment [1] addresses Glycine N-methyltransferase (Homo sapiens) (UniProt Q14749). The conditions noted are these: purified enzyme, MTase-Glo SAH luminescence; measured here: GNMT inhibition; at 40 µM; stronger effect = lower value. The method in brief: (§1)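 Each enzyme was assayed with SAM and its substrate. SAH formation detected by MTase-Glo luminescence; single-point 40 uM screen[…].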

Experiment [2] has as its target Guanidinoacetate N-methyltransferase (Homo sapiens) (UniProt Q14353). The note with it: purified enzyme, MTase-Glo SAH luminescence; measured here: GAMT inhibition; at 40 µM; stronger effect = lower value. The method in brief: as §1
For experiment [3], the target named is Histamine N-methyltransferase (Homo sapiens) (UniProt P50135). The conditions noted are these: purified enzyme, MTase-Glo SAH luminescence; measured here: HNMT inhibition; at 40 µM; stronger effect = lower value. The method in brief:
as §1

The target in experiment [4] is Nicotinamide N-methyltransferase (Homo sapiens) (UniProt P40261). The note with it: purified enzyme, MTase-Glo SAH luminescence; measured here: NNMT inhibition; at 40 µM; stronger effect = lower value. The procedure, abridged: as §1
For experiment [5], the target named is Phenylethanolamine N-methyltransferase (Homo sapiens) (UniProt P11086). The conditions noted are these: purified enzyme, MTase-Glo SAH luminescence; measured here: PNMT inhibition; at 40 µM; stronger effect = lower value. The procedure, abridged: as §1

SMILES strings stand for the structures. This is one part of the list. Further columns of the screen follow, without active or inactive calls.
% is set by controls: 0 for no effect and ±100 for the full control effect.

Take `CN1CCN(C(=O)c2cc3cc(Cl)ccc3[nH]2)CC1`: the activity change, negative = inhibition was 2.48% in experiment [1]; 5.87% in experiment [2]; 9.34% in experiment [3]; -7.76% in experiment [4]; 3.86% in experiment [5].
The corresponding values for `Cc1ccc(C)c(CSc2nnc3n(C)c(=O)c4ccc(C(=O)NC5CCCCC5)cc4n23)c1` are -0.298%, 4.26%, 1.03%, -3.34% and 0.746%.
The matching figures for `CN1C(=O)CC[C@]2(C(=O)NCc3cc(F)cc(F)c3)CCCC[C@@H]12`: -0.825%, -0.226%, 2.53%, -3.04% and -3.19%.
The matching figures for `COc1cccc(S(=O)(=O)N2CC3(Cc4ccccc4C(=O)N3)C2)c1`: -5.83%, -5.98%, -3.76%, -21.7% and -6.93%.
As for `O=C(O)C1(Cc2cccc(Nc3nccs3)n2)CCC(Oc2cccc(Cl)c2F)CC1` (stereo not given), the activity change, negative = inhibition in experiment [1] is -38.9%; in experiment [2] it was -15.8%; in experiment [3], -63.2%; in experiment [4], -43.3%; in experiment [5] it was -36.4%.
The matching figures for `CCCCCC(O)CCCC(=O)O` (stereo not given): -3.31%, 5.31%, -1.64%, -3.22% and 9.39%.
The matching figures for `CCC(O)(C(=O)OCc1ccccc1NC(=O)CCC(=O)O)C(C)O` (stereo not given): 1.98%, 2.49%, 7.58%, -12.4% and -6.84%.
`COc1ccc(C(=O)N(c2ccc(OC)cc2)S(=O)(=O)c2ccc3c(c2)n(C)c(=O)n3C)cc1`: the activity change, negative = inhibition in experiment [1] was -9.5%; in experiment [2] it was 2.53%; in experiment [3], -1.22%; in experiment [4], -11.3%; in experiment [5], -6.25%.
The matching figures for `Cc1noc2c(NCc3ccccc3)cc(-c3cccnc3)nc12`: -13%, -6.61%, -6.66%, -32.1% and -16.8%.
The corresponding values for `O=C1CC(C(=O)O)C2(CCN(c3cc(C4CC4)ncn3)CC2)N1` (stereo not given) are -1.97%, -3.3%, 0.285%, -5.28% and -5.82%.
The corresponding values for `COC(=O)c1ncn2c1C(=O)N(CCC1=CCCCC1)C(C)(C(=O)NCc1ccccc1)C2` (stereo not given) are 6.32%, 0%, 13.3%, 7.12% and 9.59%.
Consider `C/C1=C\CCC2=C[C@@H](OC2=O)c2c(C)coc2C1`, for which the activity change, negative = inhibition in experiment [1] is -2.86%; in experiment [2], -2.69%; in experiment [3] it was 3.86%; in experiment [4], -11%; in experiment [5] it was -8.62%.
The corresponding values for `COc1ccc(-c2cc3n(n2)CC(C)(C(=O)NCc2ccccc2OC)N(Cc2ccc(C)o2)C3=O)cc1` (stereo not given) are 1.83%, 3.85%, 7.64%, 2.5% and 1.39%.
As for `COc1ccc(OC)c2c1cc1n2CC(C)(C(=O)NC2CCCC2)N(Cc2cccs2)C1=O` (stereo not given), the activity change, negative = inhibition is -2.74% in experiment [1]; 3.49% in experiment [2]; 1.33% in experiment [3]; -1.82% in experiment [4]; -0.761% in experiment [5].
The corresponding values for `O=C(Cn1c(=O)oc2cc(S(=O)(=O)N3CCCC3)ccc21)N1CCN(c2ccccc2F)CC1` are 13.4%, 0.041%, 12.6%, 4.06% and 3.04%.
For the compound `CC(C)CCn1c(=O)c2ccccc2n2c(=O)n(CC(=O)Nc3ccc(Cl)cc3)nc12`, the activity change, negative = inhibition was -2.66% in experiment [1]; 2.72% in experiment [2]; 1.23% in experiment [3]; -5.12% in experiment [4]; 0.401% in experiment [5].
The corresponding values for `CCC(C(=O)NCc1ccc(OC(C)C)cc1)n1ccc2cc(S(=O)(=O)N3CCCCC3)ccc21` (stereo not given) are 4.74%, 1.92%, 1.24%, 2.91% and 1.93%.
The corresponding values for `COCCN1CCCC(c2[nH]ccc2C(=O)NCCc2nc3ccccc3[nH]2)C1` (stereo not given) are -2.73%, -9.98%, -29.6%, -13.3% and -8.69%.
As for `CC(=O)OC1CC(C)(C(=O)O)CC2C3=CC(=O)C4C5(C)CCC(OC6OC(C(=O)O)C(O)C(O)C6OC6OC(C(=O)O)C(O)C(O)C6O)C(C)(C)C5CCC4(C)C3(C)CCC12C` (stereo not given), the activity change, negative = inhibition is -2.21% in experiment [1]; -4.27% in experiment [2]; 5.13% in experiment [3]; -13% in experiment [4]; -9.03% in experiment [5].
The corresponding values for `Cc1cccc(-c2[nH]ncc2-c2ccc(F)c(-c3cnn(CCO)c3)c2)n1` are -23.8%, -15.1%, -13.7%, -23.2% and -20.5%.
The matching figures for `COc1ccc(CCNC(=O)c2cc3n(n2)CC(C)(C(=O)NCc2ccc(C)cc2)N(C)C3=O)c(OC)c1` (stereo not given): 5.79%, 1.37%, 7.36%, 5.57% and 5.81%.
The matching figures for `COC(=O)[C@H]1CN(C(=O)NC(C)C)CCN1C(=O)C1CCCCC1`: -5.38%, -8.58%, -1.96%, -12.6% and -6.76%.
For `O=C(c1ccncc1)N1CCC2(CN[S+](=O)([O-])c3cnccc3O2)C1` (stereo not given), the activity change, negative = inhibition was -3.84% in experiment [1]; -7.44% in experiment [2]; -0.836% in experiment [3]; -12.8% in experiment [4]; -8.35% in experiment [5].
As for `CCCn1c(=O)c2ccc(C(=O)NC(C)CC)cc2n2c(=O)n(CC(=O)Nc3ccccc3F)nc12` (stereo not given), the activity change, negative = inhibition in experiment [1] was -3.47%; in experiment [2], -0.603%; in experiment [3] it was 3.09%; in experiment [4], -6.11%; in experiment [5] it was -3.28%.
Take `COc1cc(N)c(Cl)cc1C(=O)OCCN1CCCCC1`: the activity change, negative = inhibition is -6.94% in experiment [1]; 4.2% in experiment [2]; -0.061% in experiment [3]; -6.86% in experiment [4]; 3.51% in experiment [5].
The matching figures for `CCC(C)(O)C(O)C(=O)OCc1ccc(O[C@@H]2O[C@H](CO)[C@@H](O)[C@H](O)[C@H]2O)c(OC)c1` (stereo not given in full): 4.77%, 4.79%, 12.7%, -8.99% and 6.56%.
The corresponding values for `COc1ccccc1CNC(=O)C1c2c(n(C)c3ccccc23)SCC(=O)N1c1ccc(C)c(C)c1` (stereo not given) are 7.39%, 0.608%, 1.58%, 2.62% and 7.45%.
As for `O=C(NCc1cccs1)c1cc2nc(-c3ccco3)cc(C(F)(F)Cl)n2n1`, the activity change, negative = inhibition in experiment [1] is -11%; in experiment [2], -30.8%; in experiment [3] it was -0.04%; in experiment [4] it was -46.4%; in experiment [5], -24.6%.
The corresponding values for `Cc1nc2ccc(Oc3ccc(F)cc3)cc2c(=O)n1C[C@H]1CCCN(C(C)C)C1` are 2.82%, 11.1%, -5.93%, -9.16% and 3.75%.
